# In the supplement of paper PMC9135407:
# Where “and” joins values, the source holds several entries; their conditions need not be identical. Equal values may be shown once. About 620 (11%) of roughly 5,800 compounds showed activity.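 The calls were made as follows: active = score above a cut-off or among the top three wells of a plate; in these data no inactive exceeds 0.85.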 This is a selection; strong and weak results do not stand in their true shares.
# Test system: primary human hepatic stellate cells (donor 1)
# Experiment: scaled lipid accumulation score (0 = DMSO-like, 1 = nortriptyline-like); higher = stronger HSC inactivation (lipid re-accumulation), active = hit call of the paper
# Details: 48 h
# [1] = library stock concentration: 400 uM
# [2] = library stock concentration: 2 mM
# [3] = library stock concentration: 10 mM
# [4] = library stock concentration: 80 uM
# [5] = library stock concentration: 3.33 mM
compound,measurement,setting,value
Cc1ccc(C(=O)Nc2ccc(CN3CCN(C)CC3)c(C(F)(F)F)c2)cc1C#Cc1cnc2cccnn12,scaled lipid accumulation score,[1],active: 0.949
same,scaled lipid accumulation score,[2],active: 1.1
same,scaled lipid accumulation score,[3],active: 1.14
CC(=O)OC/C=C(C)/C=C/C=C(C)/C=C/C1=C(C)CCCC1(C)C [Vitamin a (acetate)],scaled lipid accumulation score,library stock concentration: 6.1 mM,inactive: ≤ -0.006
CC(=O)OC/C=C(C)/C=C/C=C(C)/C=C/C1=C(C)CCCC1(C)C [Retinyl acetate],scaled lipid accumulation score,[3],inactive: 0.223
NS(=O)(=O)c1cc2c(cc1Cl)N=C(CSCc1ccccc1)NS2(=O)=O [Benzthiazide],scaled lipid accumulation score,,inactive: ≤ 0
same,scaled lipid accumulation score,[3],inactive: ≤ 0
O=C1C(CC[S+]([O-])c2ccccc2)C(=O)N(c2ccccc2)N1c1ccccc1 (stereo not given) [Sulfinpyrazone],scaled lipid accumulation score,,inactive: ≤ 0
same,scaled lipid accumulation score,library stock concentration: 4.9 mM,inactive: ≤ 0
same,scaled lipid accumulation score,[3],inactive: 0.024 and inactive: ≤ 0
CCn1c(=O)c(-c2ccc(-c3cncs3)cc2Cl)cc2cnc(Nc3ccc(N4CCN(C)CC4)cc3)nc21,scaled lipid accumulation score,[4],inactive: 0.014
same,scaled lipid accumulation score,[1],inactive: ≤ 0
same,scaled lipid accumulation score,[2],inactive: ≤ 0
same,scaled lipid accumulation score,[3],inactive: ≤ 0
OC[C@@H](O)[C@@H](O)CO,scaled lipid accumulation score,[3],inactive: ≤ 0
Cc1cnc(Nc2ccc(N3CCN(C)CC3)cc2)nc1Nc1cccc(S(=O)(=O)NC(C)(C)C)c1,scaled lipid accumulation score,[5],inactive: 0.318
same,scaled lipid accumulation score,[3],inactive: 0.463
"CCCn1c(=O)c2[nH]c(-c3ccccc3)nc2n(CCC)c1=O [1,3-Dipropyl-8-phenylxanthine]",scaled lipid accumulation score,[3],inactive: ≤ 0
CC(C)CCN1c2nc(Nc3cc(F)c(O)c(F)c3)ncc2N(C)C(=O)C1C (stereo not given),scaled lipid accumulation score,[4],inactive: ≤ -0.001
same,scaled lipid accumulation score,[1],inactive: ≤ -0.001 and inactive: ≤ -0.005
same,scaled lipid accumulation score,[2],inactive: ≤ -0.001 and inactive: 0.123
same,scaled lipid accumulation score,[5],inactive: ≤ 0
same,scaled lipid accumulation score,[3],inactive: ≤ 0 and inactive: ≤ -0.001 and inactive: 0.36
O=C(Nc1cc(C(F)(F)F)cc(C(F)(F)F)c1)c1cc(Cl)ccc1O,scaled lipid accumulation score,[3],active: 1.61
CNC(=O)c1nn(C)c2c1C(C)(C)Cc1cnc(Nc3ccc(N4CCN(C)CC4)cc3)nc1-2,scaled lipid accumulation score,[5],inactive: 0.148
same,scaled lipid accumulation score,[3],inactive: ≤ 0
CC(C)(O)CC[C@@H](O)[C@](C)(O)[C@H]1CC[C@@]2(O)C3=CC(=O)[C@@H]4C[C@@H](O)[C@@H](O)C[C@]4(C)[C@H]3CC[C@]12C [20-Hydroxyecdysone],scaled lipid accumulation score,[5],inactive: ≤ 0
same,scaled lipid accumulation score,[3],inactive: ≤ 0
Cc1cc2nc3ccc(N(C)C)cc3[s+]c2cc1N,scaled lipid accumulation score,[3],inactive: 0.114
Nc1ccc(S(=O)(=O)Nc2ccc(Cl)nn2)cc1 [Sulfachloropyridazine],scaled lipid accumulation score,,inactive: ≤ 0
Nc1ccc(S(=O)(=O)Nc2ccc(Cl)nn2)cc1 [Sulfachlorpyridazine],scaled lipid accumulation score,library stock concentration: 7 mM,inactive: ≤ 0
same,scaled lipid accumulation score,[3],inactive: ≤ 0
CC(=O)NC(C(=O)O)C(C)(C)SN=O (stereo not given) [Snap (s-nitroso-n-acetylpenicillamine)],scaled lipid accumulation score,[3],inactive: 0.171
CC(=O)NC(C(=O)O)C(C)(C)SN=O (stereo not given) [S-Nitroso-N-acetylpenicillamine],scaled lipid accumulation score,[3],inactive: ≤ -0.055
CN(C)CCC1(c2ccc(Cl)cc2)Cc2ccccc2C(=O)O1 (stereo not given),scaled lipid accumulation score,[3],inactive: 0.575
C[C@H]1C[C@H]2[C@@H]3CCC4=CC(=O)C=C[C@]4(C)[C@@]3(Cl)[C@@H](O)C[C@]2(C)[C@@]1(O)C(=O)CO [Beclomethasone],scaled lipid accumulation score,[3],inactive: ≤ 0 and inactive: 0.148
Oc1ccc(O)cc1 [Hydroquinone],scaled lipid accumulation score,[3],inactive: ≤ -0.07 and inactive: 0.155
same,scaled lipid accumulation score,library stock concentration: 18.2 mM,inactive: ≤ 0
CN1CCN(c2cccc(Nc3nc4c(-c5ccc(S(C)(=O)=O)cc5)cccn4n3)c2)CC1,scaled lipid accumulation score,[5],inactive: ≤ 0
same,scaled lipid accumulation score,[3],inactive: 0.707
CN[C@@H](C)C(=O)N[C@H](C(=O)N1CCC[C@H]1C(=O)Nc1snnc1-c1ccccc1)C1CCCCC1,scaled lipid accumulation score,[5],inactive: ≤ 0
same,scaled lipid accumulation score,[3],inactive: 0.5
CC1CCC(NC(=O)N(CCCl)N=O)CC1 (stereo not given) [Semustine],scaled lipid accumulation score,library stock concentration: 8.1 mM,inactive: ≤ 0
same,scaled lipid accumulation score,[3],inactive: ≤ -0.027
Cn1cc(C(=O)OCC2CCN(CCNS(C)(=O)=O)CC2)c2ccccc21,scaled lipid accumulation score,[3],inactive: 0.41
